Results taken from the RNAGym collection of RNA variant scans (doi:10.1073/pnas.2313332121).
This sample is rich in variants without activity.

B1: TPR 5TU (parent)
chain: GGAUCUUCUCGAUCUAACAAAAAAGACAAAUCUGCCACAAAGCUUGAGAGCAUCUUCGGAUGCAGAGGCGGCAGCCUUCGGUGGCGCGAUAGCGCCAACGUUCUCAACUAUGACACGCAAAACGCGUGCUCCGUUGAAUGGAGUUUAUCAUG

Variants of: B1
Test: polymerase ribozyme fitness, log enrichment relative to wild type (log ratio); higher = more active; in vitro selection for triplet polymerase activity
Outline: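 To select mutant libraries of each subunit of a heterodimeric triplet polymerase ribozyme, built by PCR and transcribed, each was annealed with a biotinylated primer, partner subunit and triplets, then incubated frozen at −7 °C. Extended constructs were gel-excised, captured on streptavidin beads and amplified by RT-PCR, in one round carried out in triplicate. Illumina sequencing of input and output libraries kept genotypes with ≥10 input reads and ≥1 read per output. Fitness is the base-2 logarithm of genotype enrichment relative to wild-type enrichment, from inverse-variance-weighted replicate averages.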

Variant	polymerase ribozyme fitness (log ratio)
GGAUCUUCUCGAUCUAACAAAAAAGACAAAUCUGCCACAAAGCUUGAGAGCAUCUUCGGAUGCAGAGGCGGCAGCCUUCGGUGGCGCGACAGCGCCAAGGUUCUCAACUAUGACACGCAAAACGCGUGCUCCGUUGAGUGGAGUUUAUCAUG [U90C C99G A138G]	≤ -4.2
GGAUCUUCUCGAUCUAACAAAAAAGACAAAUCUGCCACAAAGCUUGAGAGCAUCUUCGGAUGCAGAGGCGGCAGCCUUCGGUGGCGCGAAAGCGCGUACGUUCUUAGCUAUGACACGCAAAACGCGUGCUCCGUUGAAUGGAGUUUAUCAGG [U90A C96G A97U C105U A107G U151G]	≤ -4.2
GGAUCUUCUCGAUCUAACAAAAAAGACAAAUCUGCCACAAAGCUUGAGAGCAUCUUCGGAUGCAGAGGCGGCAGCCUUCGGUGGCGCGUUAGCGACAACGUUGUCAACUAUGACACCCACAACGCGUGCUCCGUUGAAUGGAGUUUAUCAUG [A89U C95A C103G G117C A120C]	≤ -4.2
GGAUCUUCUCGAUCUAACAAAAAAGACAAAUCUGCCACAAAGCUUGAGAGCAUCUUCGGAUGCAGAGGCGGCAGCCUUCGGUGGCGCGUUUGUGACAACGUUCUCAACUAUGACACGCAAAACGCGUGCUCCGUUGAAUGGAGUUUAUCAUG [A89U A91U C93U C95A]	≤ -4.2
GGAUCUUCUCGAUCUAACAAAAAAGACAAAUCUGCCACAAAGCUUGAGAGCAUCUUCGGAUGCAGAGGCGGCAGCCUUCGGUGGCGCGAAAGCGCCAACGUUCUCAACUAUGACACGCUAGACGCGUGCUCCGUUGAAUGGGGCUUAUCCUG [U90A A119U A121G A142G U144C A150C]	≤ -4.2
GGAUCUUCUCGAUCUAACAAAAAAGACAAAUCUGCCACAAAGCUUGAGAGCAUCUUCGGAUGCAGAGGCGGCAGCCUUCGGUGGCGCGUUAGCGACAACGUUCUCAACUAGGACACGCAAAACGCGUGCUACGUUGAAUGGAGUUUAUCAUA [A89U C95A U111G C131A G152A]	≤ -4.2
GGAUCUUCUCGAUCUAACAAAAAAGACAAAUCUGCCACAAAGCUUGAGAGCAUCUUCGGAUGCAGAGGCGGCAGCCUUCGGUGGCGCGAAAGCGCCAACGUUCUCAACAAUGACACGCAAAACGCGUGCUCCGUUGAAUGGAGUUUAUCAUG [U90A U109A]	≤ -4.2
GGAUCUUCUCGAUCUAACAAAAAAGACAAAUCUGCCACAAAGCUUGAGAGCAUCUUCGGAUGCAGAGGCGGCAGCCUUCGGUGGCGCGGUAGGGCCAACGUGGUCAAUUAUGACACGCAAAACGCGUGCUCCGUUGAUUGGAGUUUAUCAUG [A89G C93G U102G C103G C108U A138U]	≤ -4.2
GGAUCUUCUCGAUCUAACAAAAAAGACAAAUCUGCCACAAAGCUUGAGAGCAUCUUCGGAUGCAGAGGCGGCAGCCUUCGGUGGCGCGGUAGCGCCAACGUUCUCAACUAUGACACGCAAAACGCGUCCUCCGUUGAAUGGUGUUUAACAUG [A89G G128C A142U U148A]	≤ -4.2
GGAUCUUCUCGAUCUAACAAAAAAGACAAAUCUGCCACAAAGCUUGAGAGCAUCUUCGGAUGCAGAGGCGGCAGCCUUCGGUGGCGCGUUAGCGCCAACGUUCUCAACUAUGACACGCAAUACGCGUGCUCCGUUGAAUGGAGUUUAUCAUG [A89U A121U]	-0.72
GGAUCUUCUCGAUCUAACAAAAAAGACAAAUCUGCCACAAAGCUUGAGAGCAUCUUCGGAUGCAGAGGCGGCAGCCUUCGGUGGCGCGUUAGUGCCAACGUUCUCAACUAUGACACGCAAAACGCGUGCUCCGUUGAAUGGAGUUUAUCAUG [A89U C93U]	-1.6
GGAUCUUCUCGAUCUAACAAAAAAGACAAAUCUGCCACAAAGCUUGAGAGCAUCUUCGGAUGCAGAGGCGGCAGCCUUCGGUGGCGCGUUAGCGCCAACGUUCUCAACUAUGACACGCAAAACGCGUGCUCCGUUGAAUGGAGUUUAGCAUG [A89U U148G]	-3.92
GGAUCUUCUCGAUCUAACAAAAAAGACAAAUCUGCCACAAAGCUUGAGAGCAUCUUCGGAUGCAGAGGCGGCAGCCUUCGGUGGCGCGAAAGGGCCAACGUUCUCAACUAUGACACGCAAAACGCGUGCUCCGUUGAAUGGAGUUUAUCAUG [U90A C93G]	≤ -4.2
GGAUCUUCUCGAUCUAACAAAAAAGACAAAUCUGCCACAAAGCUUGAGAGCAUCUUCGGAUGCAGAGGCGGCAGCCUUCGGUGGCGCGUUAGCGCCAACGUUCUCAAAUAUGACACGCAAAACGCGUGCUCUGUUGAAUGGAGUUUAUCAUG [A89U C108A C132U]	≤ -4.2
GGAUCUUCUCGAUCUAACAAAAAAGACAAAUCUGCCACAAAGCUUGAGAGCAUCUUCGGAUGCAGAGGCGGCAGCCUUCGGUGGCGCGGUAGCGCCAACGUUCUCAACUAUGACACGCAAAACGAGUGCUCCGUUGAAUGGAGUUUAUCAUG [A89G C125A]	-1.77
GGAUCUUCUCGAUCUAACAAAAAAGACAAAUCUGCCACAAAGCUUGAGAGCAUCUUCGGAUGCAGAGGCGGCAGCCUUCGGUGGCGCGAAAGCGCCAACGUUCUCAACUAUGACACGCAAAACGCGUGCUCCGAUGCAUGGAGUUUAUCAUG [U90A U134A A137C]	≤ -4.2
GGAUCUUCUCGAUCUAACAAAAAAGACAAAUCUGCCACAAAGCUUGAGAGCAUCUUCGGAUGCAGAGGCGGCAGCCUUCGGUGGCGCGGUAGCGUCAACGUUCUCAACUAUGACACGCAAAACGCGUGCUCCGUUGAAUGGCGUUUAUCAUG [A89G C95U A142C]	-2.81
GGAUCUUCUCGAUCUAACAAAAAAGACAAAUCUGCCACAAAGCUUGAGAGCAUCUUCGGAUGCAGAGGCGGCAGCCUUCGGUGGCGCGUUAGCGACUACGUUCUCAACUAGGACACGCAAAACACGUGCUCCGUUGAAUGGAGUUUAUAACG [A89U C95A A97U U111G G124A C149A U151C]	≤ -4.2
GGAUCUUCUCGAUCUAACAAAAAAGACAAAUCUGCCACAAAGCUUGAGAGCAUCUUCGGAUGCAGAGGCGGCAGCCUUCGGUGGCGCGUUAGUGCCAAUGUUCUCAACUAUGACACGCAAAACGCGUGCUCCGUUGAAUGGAGUUUAUCAUG [A89U C93U C99U]	≤ -4.2
